Values joined by “and” are separate entries in the source; they are usually repeats but may differ in a detail not shown here. Equal entries are not always repeated. The inconclusive results got no clear call from the source; some entries with a clear call stand among them for comparison. Where the call is inconclusive, the potency comes from a doubtful curve fit. Active and inactive are the calls of the source. The call rests on the fitted dose curve; in most records, active means well fitted activation curve with a large enough effect in the repeat runs; inconclusive means weak or mixed curves; inactive means flat fitted curve, though single readings scatter. *1 amine or outer side, *2 acyl side, *3 side chain or, on linkers, in order; H or OH if unused. Where a SMILES comes first, the peptide text is derived from it. Bridges are numbered along the chain shown (N, C = ends). Roman numbers before positions name the chains, in order. [ ]: non-standard residue; d: D form. Actinocin(9to1) = Cc1c2oc3c(C)ccc(C(=O)[*:1])c3nc-2c(C(=O)[*:2])c(N)c1=O; NMeV = CN[C@H](C(=O)O)C(C)C; Sar = CNCC(=O)O
Assay: A CellTox Green Cytotoxicity Assay to monitor cytotoxicity in HepG2 cells - 40 hour (AID 1224879); further: nearly all actives have a fitted effect of over 40% in size
Settings: CellTox Green fluorescence; series mostly up to 76.8 µM; cytotoxicity increase: at the top concentration
From the text: National Center for Advancing Translational Sciences [NCATS]
NIH Chemical Genomics Center [NCGC]
U.S. Environmental Protection Agency [EPA]
National Institutes of Environmental Health Sciences [NIEHS]
National Toxicology Program [NTP]
Cell-based models are critical for drug discovery. Determining the natural cytotoxic effects resulting from test compounds is an essential research activity. A CellTox Green Cytotoxicity Assay to monitor cytotoxicity in real time of continues cell culture during 40 hours of the compound treatment was used to screen Tox21 10K library compounds in HepG2 cells. CellTox Green Cytotoxicity Assay is a nonlytic, homogeneous, biofluorescent method to measure cytotoxicity in cell culture after experimental manipulation. The assay system uses a proprietary asymmetric cyanine dye that is excluded from viable cells but preferentially stains the dead cell's DNA. […] Viable cells produce no appreciable increases in fluorescence. Therefore, the fluorescence signal produced by the binding interaction with dead cell DNA is proportional to cytotoxicity.
The mixture of HepG2 cell suspension and reagents were dispensed at 600cells/6 ul/well in 1536-well tissue culture treated black solid bottom plates using a Multidrop dispenser. After the assay plates were incubated at a 37 C/5% CO2 incubator for 5 hours, 23 nL of compounds dissolved in DMSO, positive and negative controls was transferred to the assay plate by a pintool work station. The plates were incubated at 37 C for 40 hours. The fluorescence intensity were measured at 0h, 8h, 16h, 24h, 32h and 40h time points using ViewLux plate reader during compound treatment.
On the % scale 0 is the no-effect control and ±100 the full control effect; potency means the concentration at half of the fitted maximal effect; tags describe the fitted curve by direction and shape.

Row | Structure (SMILES) | Potency | cytotoxicity increase
1 | CN1C(=O)N(c2ccccc2Br)Cc2cnc(Nc3ccc4c(c3)OCC(CO)O4)nc21 (stereo not given) | inconclusive: 6.16 µM [activator, full curve, poor fit] | –
2 | O=C(Nc1ccc(Cl)c(Cl)c1)c1cc(Cl)cc(Cl)c1O | active: 8.71 µM | –
3 | O=C1OC2(c3cc(Br)c(O)c(Br)c3Oc3c2cc(Br)c(O)c3Br)c2c(Cl)c(Cl)c(Cl)c(Cl)c21 | active: 3.1 µM and active: 14.9 µM | –
4 | C/C=C(/C(=C/C)c1ccc(O)cc1)c1ccc(O)cc1 | active: 19 µM | –
5 | OCCN1CCNCC1 | inconclusive: 61.1 µM [activator, single point] | –
6 | CC[C@H]1CN2CCc3cc(OC)c(OC)cc3[C@@H]2C[C@@H]1C[C@H]1NCCc2cc(OC)c(OC)cc21 | active: 49.2 µM and active: 16.9 µM | –
7 | CC1CCCCN1CCCOC(=O)c1ccc(OC2CCCCC2)cc1 (stereo not given) | active: 26.8 µM | –
8 | CC(CN(CCN(CC(C)OCCO)CC(C)OCCO)CC(C)OCCO)OCCO (stereo not given) | inconclusive: 59.4 µM [activator, single point] | –
9 | Cc1c2oc3c(C)ccc(C(=O)N[C@@H]4C(=O)N[C@H](C(C)C)C(=O)N5CCC[C@H]5C(=O)N(C)CC(=O)N(C)[C@@H](C(C)C)C(=O)O[C@@H]4C)c3nc-2c(C(=O)N[C@@H]2C(=O)N[C@H](C(C)C)C(=O)N3CCC[C@H]3C(=O)N(C)CC(=O)N(C)[C@@H](C(C)C)C(=O)O[C@@H]2C)c(N)c1=O (I: T[dV]P[Sar][NMeV] / II: T[dV]P[Sar][NMeV]; ester I:1-I:C, II:1-II:C; linker I:N-II:N via Actinocin(9to1)) | inconclusive: 9.5 nM [activator, full curve, poor fit] and inconclusive: 13.4 nM [activator, full curve, poor fit] | –
10 | Nc1c(Cl)cc(Cl)cc1Cl | inconclusive: 54.1 µM [activator, partial curve, poor fit] | –
11 | CC(C)(C)c1cc(Cc2cc(C(C)(C)C)c(O)c(C(C)(C)C)c2)cc(C(C)(C)C)c1O | inconclusive: 5.49 µM [activator, single point] | –
12 | Cc1cccc(O)c1C | inconclusive: 56.6 µM [activator, partial curve, poor fit] | –
13 | CC(C)(C)c1ccc(CCC=O)cc1 | inconclusive: 49 µM [activator, partial curve, poor fit] | –
14 | CC[C@]1(O)C[C@@H]2CN(CCc3c([nH]c4ccccc34)[C@@](C(=O)OC)(c3cc4c(cc3OC)N(C)[C@H]3[C@@](O)(C(=O)OC)[C@H](OC(C)=O)[C@]5(CC)C=CCN6CC[C@]43[C@@H]65)C2)C1 | inconclusive: 0.0085 µM [activator, full curve, poor fit] | –
15 | CCN(CC)CCOc1ccc(Cc2ccccc2)cc1 | active: 26.8 µM | –
16 | c1ccc(C(O[C@@H]2CCCN(CCc3ccc4c(c3)OCO4)C2)c2ccccc2)cc1 | inconclusive: 54.9 µM [activator, single point] | –
17 | C=CC(=O)OCC1CC2CC1C1CCC(COC(=O)C=C)C21 (stereo not given) | active: 38.9 µM | –
18 | CC(=O)[C@H]1CC[C@H]2[C@@H]3CCC4=CC(=O)CC[C@]4(C)[C@H]3CC[C@]12C | active: 54.6 µM and active: 43.6 µM | –
19 | CCCCCCC(O)CCCCCCCCCCC(=O)O (stereo not given) | inconclusive: 21.9 µM [activator, single point] and inactive | –
20 | C[C@@]12C(=O)OC(=O)[C@]1(C)C1CCC2O1 | active: 10.7 µM | –

Row | Structure (SMILES) | Potency | cytotoxicity increase
21 | C=C(C)[C@@H]1CCC2=CCC[C@@H](C)[C@]2(C)C1 | inconclusive: 61.6 µM [activator, single point] | –
22 | CC(=O)Oc1ccc2c(c1)CC[C@@H]1[C@@H]2CC[C@]2(C)[C@@H](O)CC[C@@H]12 | inconclusive: 26.8 µM [activator, single point] | –
23 | CCCOc1ccc2nc(NC(=O)OC)[nH]c2c1 | active: 0.477 µM | –
24 | CC1COc2ccccc2N1C(=O)C(Cl)Cl (stereo not given) | inconclusive: 34.6 µM [activator, partial curve, poor fit] | –
25 | O=c1cc(-c2ccccc2)oc2cc(O)cc(O)c12 | inconclusive: 54.9 µM [activator, single point] | –
26 | CC(C)(C)C1CCC(CC2=C(O)c3ccccc3C(=O)C2=O)CC1 (stereo not given) | inconclusive: 23.9 µM [activator, single point] | –
27 | CCOc1ccc2c(c1)C(C)=CC(C)(C)N2 | inconclusive: 21.9 µM [activator, single point] | –
28 | CCCCCCCC(=O)[O-].CCCCCCCC(=O)[O-].[Zn+2] | – | inactive: 18.5% [at 35.3 µM]
29 | Cc1cccc(OCCOc2cccc(C)c2)c1 | inconclusive: 58.3 µM [activator, single point] | –
30 | CC[C@H](C)COC(=O)/C=C/c1ccc(N=Cc2ccc(OC)cc2)cc1 | inconclusive: 54.9 µM [activator, single point] | –
31 | Oc1ccc2ccccc2c1N=Nc1ccccc1 | inconclusive: 38.9 µM [activator, single point] | –
32 | c1cc(OCC2CO2)cc(OCC2CO2)c1 (stereo not given) | inconclusive: 54.5 µM [activator, single point] | –
33 | OCCN1CCN(CCCN2c3ccccc3Sc3ccc(Cl)cc32)CC1 | active: 19 µM | –
34 | O=C(CCCN1CC=C(n2c(=O)[nH]c3ccccc32)CC1)c1ccc(F)cc1 | – | inactive: 13.9% [at 35.3 µM]
35 | CC(=O)CCC(=O)O | inconclusive: 61.6 µM [activator, single point] | –
36 | Oc1ccc(C(c2ccc(O)cc2)C(Cl)(Cl)Cl)cc1 | inconclusive: 49 µM [activator, single point] | –
37 | CC(C)(O)C#CC(C)(C)O | – | inactive: 7.29%
38 | COC(=O)[C@H]1[C@H]2C[C@@H]3c4[nH]c5cc(OC)ccc5c4CCN3C[C@H]2C[C@@H](OC(=O)/C=C/c2ccc(O)c(OC)c2)[C@@H]1OC | active: 23.9 µM | –
39 | NC(=O)c1nc(-c2cccc(-c3cc(F)ccc3OCC(F)(F)C(F)(F)F)c2)n[nH]1 | active: 43.6 µM | –
40 | CCN(CCN)c1cccc(C)c1 | inconclusive: 44.1 µM [activator, partial curve] | –
